Data taken from PubChem BioAssay AID686978 (National Center for Advancing Translational Sciences (NCATS), 2013).
Several values for one entry are separate records, joined by “and”; a condition that tells them apart may be missing. Equal entries are not always repeated. Among all 420,000 compounds or so, about 64,000 (15%) were called active. This list was built around the results that the source calls inconclusive (neither active nor inactive); the mix of calls is not that of the screen. Calls follow the shape of the dose curve; as a rule, active = well fitted inhibition curve with a large enough effect; inconclusive = small, poorly fitted or top-dose-only effect; inactive = flat fitted curve, though single readings scatter. Potencies beside an inconclusive call are fits to weak or partial responses and may not hold up.

assay: qHTS for Inhibitors of human tyrosyl-DNA phosphodiesterase 1 (TDP1): qHTS in cells in absence of CPT; conditions: DT40 Tdp1-/- hTDP1 cells, no CPT, ATP luminescence, 48 h; activity change, negative = growth inhibition: at 46.2 µM (top of the series); also: nearly all actives have a fitted effect of over 55% in size
Procedure, shortened: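 Growth of hTDP1-complemented DT40 Tdp1-knockout cells is measured by ATP luminescence after at least 48 hr compound exposure at 37 °C, with DMSO substituting for the 20 nM CPT used in the parallel screen.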
% is scaled to controls: 0 for no effect and ±100 for the full control effect; potency is read from the fitted curve at half-maximal effect; tags tell the direction and shape of the fitted curve.

SMILES | Potency | activity change, negative = growth inhibition
COC(=O)c1cc(NC(=S)Nc2cc(Cl)cc(Cl)c2)cc(C(=O)OC)c1 | inconclusive: 23.1 µM [inhibitor, single point] | –
Cc1ccc(-n2ncc(C(=O)N(C)Cc3ccccc3)c2-n2cccc2)cc1 | inconclusive: 25.9 µM [inhibitor, single point] | –
CCOC(=O)c1c(NC(=O)c2ccccc2C(=O)O)sc2c1CCC2 | – | inactive: -18.7%
N#CC(C#N)=Cc1cc2ccccc2nc1N1CCCCC1 | active: 20.6 µM | –
O=C1COc2ccc(S(=O)(=O)NCCc3ccc(Cl)cc3)cc2N1 | – | inconclusive: -30.5% [inhibitor]
COc1ccccc1Nc1cc(C)nc2c(C)ccc([N+](=O)[O-])c12 | – | inactive: -22.3%
CCNS(=O)(=O)c1ccc(CCC(=O)Nc2ccc3c(c2)OCO3)cc1 | – | inactive: -1.18%
Cc1ccccc1CCN1CCCC(CN(C)CC(C)(C)C)C1 (stereo not given) | inconclusive: 29.1 µM [inhibitor, single point] | –
COc1cc(/C=C/CNC[C@H]2O[C@@H](n3cnc4c(=O)[nH]c(N)nc43)[C@H](O)[C@@H]2O)ccc1O | inconclusive: 16.4 µM [inhibitor, single point] | –
C=CCNc1nc(Cl)nc(Nc2ccc(OC)cc2)n1 | – | inactive: -15.5%
Cc1nn(C(C)C(=O)NCc2ccccc2Cl)c(=O)c2c1sc1ccccc12 (stereo not given) | inconclusive: 23.1 µM [inhibitor, partial curve] | –
CN(C)CCCN(C(=O)c1sc2ccccc2c1Cl)c1nc2c(F)cccc2s1 | inconclusive: 20.6 µM [inhibitor, partial curve, poor fit] | –
Cc1ccc(NC(=O)CN2C(=S)NC(C)(C)CC2C)cc1Cl (stereo not given) | inconclusive: 20.6 µM [inhibitor, single point] | –
CC(Sc1nnc(-c2cccs2)n1Cc1ccccc1)C(=O)NCc1ccc2c(c1)OCO2 (stereo not given) | – | inconclusive: -35% [inhibitor]
CC(C)(C)OC(=O)NCc1ccc(NC(=O)c2nc[nH]c2C(=O)NCCN(CCNC(=O)c2[nH]cnc2C(=O)Nc2ccc(CNC(=O)OC(C)(C)C)cc2)CCNC(=O)c2[nH]cnc2C(=O)Nc2ccc(CNC(=O)OC(C)(C)C)cc2)cc1 | – | inactive: -19%
CC(=O)Nc1ccc(OC(=O)c2ccccc2O)cc1 | inconclusive: 21.1 µM [inhibitor, single point] | –
COc1ccc(Cl)cc1NC(=O)c1cc2nc(-c3ccc(C)cc3)cc(C(F)(F)F)n2n1 | inconclusive: 6.51 µM [inhibitor, single point] | –
Cc1cc(Br)ccc1NC(=O)C(NS(=O)(=O)c1cccs1)c1ccccc1 (stereo not given) | inconclusive: 29.1 µM [inhibitor, single point] | –
COc1cc(C=O)ccc1OCCOCCOc1ccc(Cl)cc1 | inconclusive: 29.1 µM [inhibitor, single point] | –
O=C(Nc1ccc(-n2cnnn2)cc1)c1cccc(S(=O)(=O)N2CCCC2)c1 | – | inactive: 0.283%
O=C1CC2(CCN(C(=O)COc3ccc(F)cc3)CC2)Oc2ccccc21 | inconclusive: 20.6 µM [inhibitor, single point] | –
COc1cc(OC)c(S(=O)(=O)NC(C)C)cc1S(=O)(=O)NC(C)C | – | inactive: -4.42%
CCCCCC(=O)Nc1cc(S(=O)(=O)N2CCOCC2)ccc1N1CCCC1 | inconclusive: 20.6 µM [inhibitor, single point] | –
Cc1cc(CNC(=O)c2ccc3c(c2)OCO3)c2ccccc2n1 | active: 4.61 µM | –

SMILES | Potency | activity change, negative = growth inhibition
NS(=O)(=O)c1ccc(NC(=O)CSc2nnc(COc3ccccc3Cl)n2C2CC2)cc1 | inconclusive: 9.2 µM [inhibitor, partial curve, poor fit] | –
Cc1cc(/C=C2\SC(=S)N(C)C2=O)c(C)n1-c1cccc(O)c1 | inconclusive: 23.1 µM [inhibitor, single point] | –
CCC(=O)N[C@@H]1c2ccccc2C2(CCN(Cc3cnc(N(C)C)s3)CC2)[C@H]1OC | – | inactive: -3.26%
CCOc1cc(-c2nc(-c3ccc(C)nc3OC)no2)cc(OCC)c1OCC | inconclusive: 8.2 µM [inhibitor, partial curve] | –
O=c1c(O)c(-c2ccc(O)cc2)oc2cc(O)cc(O)c12 | inconclusive: 21.1 µM [inhibitor, partial curve, poor fit] and inconclusive: 20.6 µM [inhibitor, partial curve] | –
NC(=O)CC(NC(=O)Cc1cccc2ccccc12)c1ccc(NC2CCCCC2)c([N+](=O)[O-])c1 (stereo not given) | inconclusive: 20.6 µM [inhibitor, single point] | –
CN1CCN(CCNC(=O)c2ccc3nc(-c4ccc(F)cc4)c(-c4ccc(F)cc4)nc3c2)CC1 | inconclusive: 29.1 µM [inhibitor, single point] | –
COC(=O)c1cc(S(=O)(=O)N(C)C2CCCCC2)c[nH]1 | – | inactive: -3.69%
COCc1cc(/C=N\NC(=O)COc2ccc(Cl)cc2)ccc1OC | inconclusive: 23.1 µM [inhibitor, single point] | –
C#CCn1c(=NC(=O)CN2C(=O)CCC2=O)sc2cccc(C)c21 | inconclusive: 32.6 µM [inhibitor, partial curve] | –
COc1ccccc1NC(=O)c1ccc2nc(N3C(=O)CCC3=O)sc2c1 | – | inactive: -2.13%
CCC(C)NS(=O)(=O)c1ccc(OCC(=O)Nc2ccc3c(c2)OCO3)cc1 (stereo not given) | inconclusive: 23.1 µM [inhibitor, single point] | –
Cc1cccc(-c2nnc3n2N=C(c2ccccc2)CS3)c1 | inconclusive: 29.1 µM [inhibitor, single point] | –
Cc1ccc(-c2n[nH]c3c2C(c2ccccc2)N(c2ccc(C(=O)O)cc2)C3=O)cc1 (stereo not given) | – | inactive: 18.8%
O=c1cc(N2CCC3(CC2)OCCO3)[nH]c(=O)n1-c1ccc(Br)cc1 | – | inactive: -2.77%
COc1cccc(C(=O)Nc2ccc3nc(SCC(=O)N4CCc5ccccc54)sc3c2)c1 | active: 4.61 µM | –
CCC(CC)NC(=O)C1CC(=O)N(CCc2ccc(F)cc2)C1 (stereo not given) | – | inactive: -9.43%
Cc1c(NC(=O)c2ccc(-c3ccc(F)cc3)o2)cccc1-c1nc2ncccc2o1 | active: 9.2 µM | –
CCOc1ccc2nc(N3CCC(C(=O)N4CCN(C5CCCCC5)CC4)CC3)sc2c1 | inconclusive: 23.1 µM [inhibitor, partial curve] | –
COc1cccc(COC(=O)C2CCN(S(=O)(=O)c3cccs3)CC2)c1OC | – | inactive: 0.105%
NCC(=O)Nc1ccc(Cl)cc1C(=O)c1ccc[nH]1 | active: 0.116 µM | –
Cc1ccc(S(=O)(=O)N2CC3CCCC2C3)cc1 (stereo not given) | inconclusive: 9.2 µM [inhibitor, partial curve] | –
Fc1ccc(Nc2nc(-c3ccc(F)cc3)c3c(n2)-c2ccccc2OC3)cc1 | inconclusive: 23.1 µM [inhibitor, single point] | –
CCOc1ccccc1CNC(=O)c1cc2oc3ccccc3c2n1CC | active: 18.4 µM | –

SMILES | Potency | activity change, negative = growth inhibition
CCOC(=O)c1cccc(NC(=O)c2cccnc2)c1 | inconclusive: 23.1 µM [inhibitor, partial curve] | –
CN(C)c1ccc(-c2ccc3ncnc(NC4CC4)c3c2)cc1 | active: 13 µM | –
Cc1nc2ccc(NC(=O)c3nn(CC(C)C)c(=O)c4ccccc34)cc2s1 | inconclusive: 25.9 µM [inhibitor, single point] | –
COc1ccc(-n2c(CCNC(=O)c3ccccc3C(F)(F)F)nnc2SC)cc1 | – | inactive: -11.4%
CCOc1ccc(C(=O)NCC(=O)Nc2ccc3c(c2)OCO3)cc1OCC | – | inactive: 5.41%
Cc1ccc(Nc2nc(-c3ccc(F)cc3)cs2)nc1 | inconclusive: 20.6 µM [inhibitor, single point] | –
COc1ccc(C2=NN(c3ccccc3)C(=O)/C2=C\c2ccc(O)c(OC)c2)cc1 | – | inactive: -28.5%
O=C(CCc1nc2ccccc2c(=O)[nH]1)N1CCN(S(=O)(=O)c2cc(Cl)ccc2Cl)CC1 | inconclusive: 29.1 µM [inhibitor, single point] | –
CCCCN(C(=O)CSc1nnc(-c2ccccc2)o1)c1c(N)n(CCC)c(=O)[nH]c1=O | – | inactive: 6.9%
Cc1ccn2c(-c3csc(NCc4ccccc4)n3)c(C)nc2c1 | active: 14.6 µM | –
COc1cc(/C=C2/C(=O)N(c3ccc([N+](=O)[O-])cc3)N=C2N2CCOCC2)ccc1O | inconclusive: 18.4 µM [inhibitor, partial curve] | –
CC(C)Oc1ccc(CN2CCC(n3nccc3NC(=O)C3CC3)CC2)cc1 | – | inactive: 1.73%
CCN1C(=O)[C@H]2[C@H]3CN=C(SCc4ccccc4)N3[C@@](CC)(C(=O)OC)[C@H]2C1=O | inconclusive: 20.6 µM [inhibitor, single point] | –
CC(CCc1ccco1)NC(=O)c1cc2c(-c3ccccc3F)nn(C)c2s1 (stereo not given) | inconclusive: 29.1 µM [inhibitor, single point] | –
CC1(C(=O)NC2CCCCC2)CCC(=O)N1CC(F)(F)F (stereo not given) | – | inactive: 19.6%
COCCSc1nnc(NC(=O)CS(=O)(=O)c2ccc(C)cc2)s1 | – | inactive: -15.2%
O=c1oc2ccc(NS(=O)(=O)c3cccc4cccnc34)cc2s1 | active: 23.1 µM | –
CC(=O)c1c(C)[nH]c(C(=O)CSc2nc3ccccc3n2C)c1C | active: 9.2 µM | –
CC1C(=O)N(Cc2cn(CCC3OCCCO3)nn2)CCS(=O)(=O)N1Cc1ccc(-c2ccc(Cl)c(Cl)c2)cc1 (stereo not given) | active: 3.66 µM | –
Cc1ccc(-c2nc3scc(CCNS(=O)(=O)c4c(C)noc4C)n3n2)cc1 | inconclusive: 16.4 µM [inhibitor, single point] | –
CCCN(c1ccc(C(=O)OC)cc1)S(=O)(=O)c1ccccc1 | – | inactive: -7.6%
O=C1N(Cc2ccc3c(c2)OCO3)c2ccccc2C1(O)c1c[nH]c2ccccc12 (stereo not given) | inconclusive: 29.1 µM [inhibitor, single point] | –
